# PubChem BioAssay AID1460 (National Center for Advancing Translational Sciences (NCATS), 2008)
# Several values for one entry are separate records, joined by “and”; a condition that tells them apart may be missing. Identical values can stand only once. About 5,800 (2.1%) of roughly 270,000 compounds were called active. The shares of active, inactive and inconclusive entries below differ from those in the screen. The call rests on the fitted dose curve; in most records, active means well fitted inhibition curve with a large enough effect; inconclusive means small, poorly fitted or top-dose-only effect; inactive means flat fitted curve, though single readings scatter. Where the call is inconclusive, the potency comes from a doubtful curve fit.
# Molecular target: Microtubule-associated protein tau (Homo sapiens) (UniProt P10636)
# Chain of UniProt P10636 (P10636 whole entry, looked up): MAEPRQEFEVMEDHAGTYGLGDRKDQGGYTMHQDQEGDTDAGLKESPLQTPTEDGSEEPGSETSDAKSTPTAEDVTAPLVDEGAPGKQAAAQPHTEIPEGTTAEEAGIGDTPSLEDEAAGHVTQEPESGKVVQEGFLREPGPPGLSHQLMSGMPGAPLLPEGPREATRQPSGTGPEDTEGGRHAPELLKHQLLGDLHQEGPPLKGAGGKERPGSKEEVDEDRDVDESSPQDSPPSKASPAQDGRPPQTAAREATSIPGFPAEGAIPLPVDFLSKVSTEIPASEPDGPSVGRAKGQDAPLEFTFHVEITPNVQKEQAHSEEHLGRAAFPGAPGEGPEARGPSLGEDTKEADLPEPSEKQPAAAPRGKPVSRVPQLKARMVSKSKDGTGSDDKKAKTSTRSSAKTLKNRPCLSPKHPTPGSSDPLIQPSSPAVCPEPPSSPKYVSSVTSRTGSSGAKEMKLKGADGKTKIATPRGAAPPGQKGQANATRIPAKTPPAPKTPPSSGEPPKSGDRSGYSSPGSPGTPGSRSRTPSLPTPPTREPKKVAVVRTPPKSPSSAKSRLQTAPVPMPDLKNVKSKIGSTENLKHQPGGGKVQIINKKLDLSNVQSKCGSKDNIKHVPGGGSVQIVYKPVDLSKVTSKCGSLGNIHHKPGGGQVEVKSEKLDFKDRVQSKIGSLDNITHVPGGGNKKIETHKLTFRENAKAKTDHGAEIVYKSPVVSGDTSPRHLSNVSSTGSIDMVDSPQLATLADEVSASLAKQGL
# Experiment: qHTS for Inhibitors of Tau Fibril Formation, Thioflavin T Binding; further: nearly all actives have a fitted effect of over 55% in size
# Conditions: recombinant tau K18 P301L (four-repeat tau fragment), heparin-induced fibrillization, ThT fluorescence; series mostly up to 57.4 µM
# How it was run: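 Aggregation was driven by heparin (20 uM final) acting on recombinant tau […] bearing P301L in 100 mM sodium acetate pH 7; fibrils were detected with Thioflavin T.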
# Potency means the concentration at half of the fitted maximal effect; tags describe the fitted curve by direction and shape.
row,SMILES,Potency
1,Cc1ccn2c(Nc3ccc4c(c3)OCO4)c(-c3ccc(N(C)C)cc3)nc2c1,"inconclusive: 6.31 µM [inhibitor, partial curve]"
2,COc1ccc(/C=C2\SC(=S)N(Cc3cccnc3)C2=O)cc1C,"inconclusive: 3.16 µM [inhibitor, full curve]"
3,O=C(/C=C/c1ccncc1)c1cc(Cl)ccc1O,active: 28.2 µM
4,CCn1nc(C)cc1C(=O)Sc1ccc(C)cc1,"inconclusive: 17.8 µM [inhibitor, partial curve]"
5,COc1cccc(C2CC(=O)NC(SC)=C2C#N)c1 (stereo not drawn),inactive
6,COc1ccccc1COC(=O)N/C=C/c1ccco1,"inconclusive: 39.8 µM [inhibitor, single point]"
7,COc1cc(C=O)ccc1OCc1ccc(Cl)nc1,"inconclusive: 22.4 µM [inhibitor, partial curve, poor fit]"
8,CC1=C(C2=C(C)C(C(C)C)C3=C(C(=O)C(O)C3O)C2O)C(O)C2=C(C(O)C(O)C2=O)C1C(C)C (stereo not drawn),"inconclusive: 39.8 µM [inhibitor, partial curve]"
9,CCOc1ccc(NC(=O)CC2C(=O)N(c3ccccc3)C(=O)N2C2CCCCC2)cc1 (stereo not drawn),inactive
10,COc1cc(OC)cc(C(=O)Oc2c(CN3CCOCC3)cc(Cl)c3cccnc23)c1,"inconclusive: 3.55 µM [inhibitor, full curve, poor fit]"
11,COc1ccc(-c2noc(CCC(=O)Nc3ccc4c(c3)OCCO4)n2)cc1,"inconclusive: 11.2 µM [inhibitor, partial curve]"
12,Cc1ccc2nc(N3CCN(Cc4ccc(F)cc4)C3=O)c(C)cc2c1,"inconclusive: 17.8 µM [inhibitor, partial curve]"
13,CCOc1ccc2nc(SC3CC(=O)N(c4ccc(OC)cc4)C3=O)sc2c1 (stereo not drawn),"inconclusive: 12.6 µM [inhibitor, partial curve]"
14,Cc1ccc(-c2cn3nc(C)c(C)nc3n2)cc1,"inconclusive: 1.12 µM [inhibitor, partial curve]"
15,Cc1ccc(/C=C/C(=O)Nn2cnnc2)cc1,active: 14.1 µM
16,COc1ccc(C(=O)COC(=O)c2ccc(OC)c(OC)c2)cc1OC,"inconclusive: 7.08 µM [inhibitor, full curve]"
17,CCc1ccc(NC(=O)C(C)n2nnc3sc(-c4ccccc4)cc3c2=O)cc1 (stereo not drawn),active: 28.2 µM
18,CCOc1ccc(Nc2ncnc3c2cnn3Cc2ccccc2)cc1,"inconclusive: 12.6 µM [inhibitor, partial curve]"
19,C[C@@H]1C(=O)OC2C[C@@]34[C@H]5C[C@@H](C(C)(C)C)[C@@]36C(O)C(=O)O[C@H]6O[C@@]4(C(=O)O5)[C@]21O (stereo partly drawn),inactive
20,CCOc1ccc(C2=NC(c3ccc(OC)cc3)=Nc3ccc(Cl)cc3N2)cc1,"inconclusive: 2.82 µM [inhibitor, full curve]"
21,CC1C/C(=C/c2ccco2)C(=O)/C(=C/c2ccco2)C1 (stereo not drawn),active: 25.1 µM
22,COc1cc(NC(=O)c2cc3nc(C)cc(C)n3n2)c(OC)cc1Cl,"inconclusive: 20 µM [inhibitor, single point]"
23,CCn1c(N)nc2c1c(=O)n(C)c(=O)n2C,inactive

row,SMILES,Potency
1,COC(=O)[C@@H](NC(=O)O[C@@H]1C(=O)c2cc(Br)ccc2O[C@H]1c1cccc(OC)c1)C(C)C,"inconclusive: 0.0251 µM [inhibitor, full curve, poor fit]"
2,COc1ccc(C(=O)/C=C/c2cc(C(=O)O)cc3c2OCOC3)c(O)c1,"inconclusive: 2.51 µM [inhibitor, full curve]"
3,CC(C)CCNC(=O)CSc1nc2ccccc2nc1Cc1ccccc1,inactive
4,CCCS(=O)(=O)N1CCN(Cc2ccccc2C(F)(F)F)CC1,inactive
5,CC(=O)Oc1ccc(C(=O)[C@H]2[C@H]3C(=O)N(c4ccc(C)cc4C)C(=O)[C@H]3[C@@H]3C=CC=NN32)cc1,"inconclusive: 39.8 µM [inhibitor, single point]"
6,CCN(CC)C(=O)c1sc2nc(-c3ccc(OC)cc3)cn2c1C,"inconclusive: 28.2 µM [inhibitor, partial curve, poor fit]"
7,CCOc1ccc(NC(=O)Cn2cc(C(=O)c3ccc(CC)cc3)c(=O)c3cc(OC)c(OC)cc32)cc1,"inconclusive: 28.2 µM [inhibitor, partial curve]"
8,CC(C)CNc1oc(-c2ccccc2Cl)nc1C#N,inactive
9,COc1ccc(C(=O)N2CCCC(CCC(=O)NCc3ccc(F)c(F)c3)C2)o1 (stereo not drawn),inactive
10,Fc1ccc(N2CCN(c3ncnc4nc[nH]c34)CC2)cc1,"inconclusive: 5.62 µM [inhibitor, partial curve]"
11,COc1ccc(-c2csc3nc(-c4cccnc4)nc(N4CCC(C(N)=O)CC4)c23)cc1OC,"inconclusive: 14.1 µM [inhibitor, partial curve]"
12,CC1CC(C)CN(C(=O)COC(=O)CNS(=O)(=O)/C=C/c2ccccc2)C1 (stereo not drawn),inactive
13,N#C/C(=C/c1ccc(N2CCCC2)c([N+](=O)[O-])c1)c1nc2ccccc2[nH]1,active: 2.51 µM
14,O=C(NN=C1CCCCC1)c1cc(-c2ccccc2)n[nH]1,"inconclusive: 3.16 µM [inhibitor, full curve]"
15,CC(SC1=NCCS1)C(=O)Nc1nnc(-c2ccc(Cl)cc2)s1 (stereo not drawn),"inconclusive: 3.16 µM [inhibitor, full curve]"
16,O=C(CC(SCCO)c1ccc2c(c1)OCO2)c1ccco1 (stereo not drawn),"inconclusive: 25.1 µM [inhibitor, partial curve, poor fit]"
17,COc1ccc(CCN2CC34C=CC(O3)C(C(=O)NCc3ccccc3)C4C2=O)cc1OC (stereo not drawn),inactive
18,O=c1oc(-c2ccccc2)nc2ccsc12,"inconclusive: 12.6 µM [inhibitor, partial curve]"
19,O=C(Cn1c(=O)oc2cc(S(=O)(=O)N3CCCCCC3)ccc21)NCc1ccccc1Cl,inactive
20,Cc1ccc(Nc2nc(C)cs2)cc1,inactive
21,COC(=O)[C@@]1(Cc2ccc(OC)cc2)[C@H]2c3cc(C(=O)N4CCCC4)n(Cc4ccc(C)c(F)c4F)c3C[C@H]2CN1C(=O)c1ccccc1,"inconclusive: 20 µM [inhibitor, single point]"
22,c1ccc(-c2noc(-c3ccc4c(c3)OCO4)n2)nc1,"inconclusive: 25.1 µM [inhibitor, partial curve]"
23,Cn1ccc2cc3c(cc21)CCN3C(=O)Nc1cccnc1,"inconclusive: 10 µM [inhibitor, partial curve] and inconclusive: 12.6 µM [inhibitor, partial curve]"

row,SMILES,Potency
1,COC(=O)[C@@]1(Cc2ccccc2)[C@H]2c3cc(C(=O)N4CCCC4)n(CCc4ccccn4)c3C[C@H]2CN1C(=O)c1ccccc1,inactive
2,COc1cccc(/C=N/Nc2ncnc3c2ncn3Cc2ccccc2)c1O,"inconclusive: 28.2 µM [inhibitor, single point]"
3,COC(=O)c1c(NC(=O)C2C3C=CC(CC3)C2C(=O)O)sc(C)c1C (stereo not drawn),"inconclusive: 25.1 µM [inhibitor, single point]"
4,O=C(COc1ccc(Br)cc1)NNC(=S)NC(=O)c1ccccc1[N+](=O)[O-],inactive
5,Cc1[nH]n(-c2ccc([N+](=O)[O-])cc2)c(=O)c1C=NCC1CCCO1 (stereo not drawn),inactive
6,CCN(CC)c1ccc(-n2c(C)cc(C=O)c2C)cc1,"inconclusive: 20 µM [inhibitor, partial curve]"
7,COc1ccc(/C=N/NC(=O)Nc2ccc3nsnc3c2)c(OC)c1,"inconclusive: 1.26 µM [inhibitor, full curve]"
8,CCN(C(=O)c1coc(=O)c(Br)c1)c1ccc2c(c1)OCO2,active: 22.4 µM
9,Cc1ccnc(NC(=O)/C=C/c2ccccc2Cl)c1,"inconclusive: 39.8 µM [inhibitor, single point]"
10,COc1ccc2c(c1)O/C(=C\c1sccc1C)C2=O,"inconclusive: 10 µM [inhibitor, partial curve]"
11,COc1ccc(CCNC(=O)COc2ccc(N(C)S(=O)(=O)c3ccc(C)cc3)cc2)cc1OC,inactive
12,CCOc1ccc(-c2cc(OC(=O)c3ccc(OC)cc3)c3c(C)oc(C)c3c(=O)c2)cc1,"inconclusive: 17.8 µM [inhibitor, partial curve, poor fit]"
13,CCc1nc2ccc(C(=O)N3CCN(c4cccc(C)c4C)CC3)cc2nc1CC,"inconclusive: 14.1 µM [inhibitor, single point]"
14,O=[N+]([O-])c1c(NCCO)cc(Sc2nc3ccccc3s2)c2nonc12,active: 12.6 µM
15,CCCN1C(=O)/C(=N\OCC(=O)NC23CC4CC(CC(C4)C2)C3)c2ccccc21,"inconclusive: 7.08 µM [inhibitor, full curve, poor fit]"
16,CCc1ccccc1NC(=O)c1cccs1,"inconclusive: 35.5 µM [inhibitor, partial curve]"
17,O=C(CN(Cc1ccccc1)S(=O)(=O)c1ccccc1)N/N=C/c1ccc2c(c1)OCO2,inactive
18,CCOc1ccc(C(=O)N/N=C/c2ccc(-c3ccc(S(=O)(=O)Nc4ncccn4)cc3)o2)cc1,"inconclusive: 7.08 µM [inhibitor, partial curve]"
19,O=C(O)CP(=O)(O)O,inactive
20,CCc1ccc(NC(=O)Cn2nc3c4ccccc4n(Cc4ccccc4)cc-3c2=O)cc1,"inconclusive: 2.51 µM [inhibitor, full curve, poor fit]"
21,COc1cc(/C=C2\C(=O)N(CCC#N)N=C2C)c(Br)cc1OC(C)C,inactive
22,Cc1cc(OCCCC(=O)NCCN2C(=O)S/C(=C\c3cccnc3)C2=O)ccc1Cl,"inconclusive: 6.31 µM [inhibitor, partial curve]"
